# Some of the results follow. No stated cut-off is given here; in the data, active = 3.2 or more and inactive = the rest. Most of these values are background signal.
# Assays:
# Assay in all cases: enrichment score (SH2-bound / input frequency) (ratio); bacterial display of known human phosphotyrosine sites (pTyr-Var adds point mutants) read by sequencing; higher = stronger binding; tyrosines were phosphorylated by kinases first
# Conditions in all cases: peptide library: pTyr-Var
# SHP2 C-SH2 domain E139D = biological target: SHP2 C-SH2 domain E139D
# [1] = biological target: SHP2 C-SH2 domain wild-type
# SHP2 N-SH2 domain L43F = biological target: SHP2 N-SH2 domain L43F
# SHP2 N-SH2 domain T42A = biological target: SHP2 N-SH2 domain T42A
# SHP2 N-SH2 domain T52S = biological target: SHP2 N-SH2 domain T52S
# [2] = biological target: SHP2 N-SH2 domain wild-type
# 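Further: displayed peptides selected on beads carrying the immobilized SH2 domain, with library peptides lacking any tyrosine serving as negative controls.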
Binder,enrichment score (SHP2 C-SH2 domain E139D),enrichment score [1],enrichment score (SHP2 N-SH2 domain L43F),enrichment score (SHP2 N-SH2 domain T42A),enrichment score (SHP2 N-SH2 domain T52S),enrichment score [2]
GHPYAYDWISI [BEST1_Y227_L224P],inactive: 1.2,inactive: 1.06,inactive: 1.17,inactive: 1.89,inactive: 1.12,inactive: 1.12
RKLVDYDSAQH [BIN1_Y150_R154Q],inactive: 0.546,inactive: 0.55,inactive: 0.552,inactive: 0.465,inactive: 0.551,inactive: 0.474
GIVEEYQLPYY [BMPR1A_Y453],inactive: 0.987,inactive: 0.955,inactive: 0.907,inactive: 0.823,inactive: 1.01,inactive: 0.92
RKLVDYDSARH [BIN1_Y150],inactive: 0.82,inactive: 0.695,inactive: 0.606,inactive: 0.609,inactive: 0.632,inactive: 0.791
ELANLYHHVWM [BICD2_Y538_C542W],inactive: 1.7,inactive: 1.56,inactive: 1.4,inactive: 1.35,inactive: 1.36,inactive: 1.48
GHLYAYDWISI [BEST1_Y227],inactive: 2.95,inactive: 2.87,inactive: 2.92,inactive: 2.71,inactive: 2.95,inactive: 3.11
HKETGYVVERP [BCLAF1_Y466_L461H],inactive: 0.733,inactive: 0.829,inactive: 0.753,inactive: 0.774,inactive: 0.911,inactive: 0.882
GHLYACDWISI [BEST1_Y227_Y227C],inactive: 1.14,inactive: 1.23,inactive: 1.41,inactive: 1.08,inactive: 1.09,inactive: 1.64
GIMEEYQLPYY [BMPR1A_Y453_V450M],inactive: 1.25,inactive: 1.11,inactive: 1.36,inactive: 0.864,inactive: 0.936,inactive: 1.12
IHTEFYDGLFP [BCR_Y561_K558T],inactive: 1.23,inactive: 0.939,inactive: 1.3,inactive: 0.815,inactive: 1.2,inactive: 1.02
DDSSAYRSVDE [BCKDHA_Y345],inactive: 0.45,inactive: 0.403,inactive: 0.422,inactive: 0.476,inactive: 0.368,inactive: 0.663
EYQLPYYNTVP [BMPR1A_Y457_M460T],inactive: 2.48,inactive: 2.47,inactive: 2.15,active: 3.36,inactive: 2.29,inactive: 2.13
GHLFACDWISI [BEST1_Y227_Y227C_YF],inactive: 1.96,inactive: 1.72,inactive: 1.64,inactive: 1.51,inactive: 1.36,inactive: 1.59
LKETGYVVERP [BCLAF1_Y466],inactive: 0.784,inactive: 0.677,inactive: 0.849,inactive: 0.792,inactive: 0.847,inactive: 0.906
RTLIRYANLSN [BEST1_Y131_G135S],inactive: 2.14,active: 3.95,active: 3.96,active: 9.21,active: 5.37,inactive: 1.77
VSTKVYKRFPS [BEST1_Y148_A146K],inactive: 0.562,inactive: 0.634,inactive: 0.424,inactive: 0.717,inactive: 0.613,inactive: 0.614
PGNIVYSSLCG [BCOR_Y90],inactive: 1.43,inactive: 1.52,inactive: 1.25,inactive: 2.25,inactive: 1.13,inactive: 1.42
ELANLYHHVCM [BICD2_Y538],inactive: 1.23,inactive: 1.75,inactive: 1.08,inactive: 1.12,inactive: 1.14,inactive: 1.47
FQLPFYNMVPS [BMPR1A_Y458_YF],inactive: 1.34,inactive: 1.19,inactive: 1.4,inactive: 1.41,inactive: 1.61,inactive: 0.96

Binder,enrichment score (SHP2 C-SH2 domain E139D),enrichment score [1],enrichment score (SHP2 N-SH2 domain L43F),enrichment score (SHP2 N-SH2 domain T42A),enrichment score (SHP2 N-SH2 domain T52S),enrichment score [2]
LDVGEYCVPRG [BEX1_Y43_A40V],inactive: 0.725,inactive: 0.926,inactive: 0.823,inactive: 0.569,inactive: 0.66,inactive: 0.763
AGRSGYDNREI [BCL2_Y9_T7S],inactive: 0.519,inactive: 0.608,inactive: 0.61,inactive: 0.538,inactive: 0.556,inactive: 0.702
LGNIVYSSLCG [BCOR_Y90_P85L],inactive: 1.28,inactive: 1.56,inactive: 1.41,inactive: 1.75,inactive: 1.22,inactive: 1.43
SARHHYESLQT [BIN1_Y157],inactive: 1.28,inactive: 1.38,inactive: 1.19,inactive: 1.42,inactive: 1.31,inactive: 1.21
IHKEFYDGLFP [BCR_Y561],inactive: 0.846,inactive: 1.2,inactive: 1.05,inactive: 0.931,inactive: 1.27,inactive: 1.19
WRPFGYPCRRR [BCS1L_Y181_R183C],inactive: 0.226,inactive: 0.263,inactive: 0.261,inactive: 0.255,inactive: 0.281,inactive: 0.274
KVPELYEIHKE [BCR_Y554],inactive: 0.877,inactive: 0.765,inactive: 0.814,inactive: 0.754,inactive: 0.77,inactive: 0.799
WRPFGYPRCRR [BCS1L_Y181_R184C],inactive: 0.193,inactive: 0.221,inactive: 0.19,inactive: 0.183,inactive: 0.276,inactive: 0.192
AFLLLCFNDTH [BMP15_Y235_Y235C],inactive: 1.7,inactive: 1.99,inactive: 1.64,inactive: 1.85,inactive: 1.66,inactive: 2.04
GHLYAYNWISI [BEST1_Y227_D228N],inactive: 2.18,inactive: 2.17,inactive: 1.86,inactive: 1.83,inactive: 1.78,inactive: 2.36
GKTQQYECKWY [BCR_Y751_D752E],inactive: 0.701,inactive: 0.76,inactive: 0.692,inactive: 0.624,inactive: 0.619,inactive: 0.906
EFQLPYFNMVP [BMPR1A_Y457_YF],inactive: 1.82,inactive: 2.01,inactive: 1.35,inactive: 1.84,inactive: 1.6,inactive: 1.36
GHLYAYDWIRI [BEST1_Y227_S231R],inactive: 2.79,inactive: 2.41,inactive: 2.6,inactive: 2.41,inactive: 2.65,inactive: 2.49
DDSSAYCSVDE [BCKDHA_Y345_R346C],inactive: 0.463,inactive: 0.511,inactive: 0.368,inactive: 0.577,inactive: 0.583,inactive: 0.555
RTLIRYAKLGN [BEST1_Y131_N133K],inactive: 0.837,inactive: 0.55,inactive: 0.726,inactive: 1.79,inactive: 0.721,inactive: 0.824
EEVGIYRMSGV [BCR_Y1089_V1091M],inactive: 0.727,inactive: 0.562,inactive: 0.656,inactive: 0.6,inactive: 0.524,inactive: 0.63
VSTAVYKRFPS [BEST1_Y148],inactive: 0.833,inactive: 0.705,inactive: 0.71,inactive: 0.644,inactive: 0.748,inactive: 0.9
ANLAKYGNPNE [BCHE_Y505_F502L],inactive: 0.698,inactive: 0.675,inactive: 0.679,inactive: 0.453,inactive: 0.573,inactive: 0.792
